Assay results: US20200138970A1 (Bayer, published 2020)

T1: human B7H3 on cancer cell lines (human, UniProt Q5ZPR3 29-534)
T1 sequence (looked up): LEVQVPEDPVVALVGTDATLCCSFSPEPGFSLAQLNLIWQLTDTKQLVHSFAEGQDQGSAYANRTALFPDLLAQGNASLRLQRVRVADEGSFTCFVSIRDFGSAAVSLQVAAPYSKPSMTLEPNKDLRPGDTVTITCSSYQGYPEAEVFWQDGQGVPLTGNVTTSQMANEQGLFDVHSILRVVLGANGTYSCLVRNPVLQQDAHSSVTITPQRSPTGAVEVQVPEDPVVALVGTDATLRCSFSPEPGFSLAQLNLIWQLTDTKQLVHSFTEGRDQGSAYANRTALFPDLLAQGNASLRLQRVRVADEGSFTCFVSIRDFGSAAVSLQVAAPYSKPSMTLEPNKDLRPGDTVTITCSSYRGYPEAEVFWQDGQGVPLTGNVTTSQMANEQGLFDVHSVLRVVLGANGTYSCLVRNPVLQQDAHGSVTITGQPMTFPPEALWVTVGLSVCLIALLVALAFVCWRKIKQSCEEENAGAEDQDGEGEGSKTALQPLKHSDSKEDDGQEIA

T2: human B7H2 (RnDSystems, 8206-B7) (human, UniProt O75144 19-258, limits assumed)
T2 construct: Bought protein; His tag implied by anti-His detection
T2 sequence (looked up): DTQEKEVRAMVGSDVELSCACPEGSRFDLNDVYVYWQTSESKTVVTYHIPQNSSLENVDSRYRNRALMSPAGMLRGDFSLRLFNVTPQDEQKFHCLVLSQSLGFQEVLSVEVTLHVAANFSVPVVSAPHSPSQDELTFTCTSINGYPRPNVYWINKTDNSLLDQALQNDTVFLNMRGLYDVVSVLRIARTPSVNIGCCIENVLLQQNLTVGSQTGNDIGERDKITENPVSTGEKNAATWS

T3: human B7H4 (RnDSystems, 6576-B7) (human, UniProt Q7Z7D3 29-258, limits assumed)
T3 construct: Bought protein; His tag implied by anti-His detection
T3 sequence (looked up): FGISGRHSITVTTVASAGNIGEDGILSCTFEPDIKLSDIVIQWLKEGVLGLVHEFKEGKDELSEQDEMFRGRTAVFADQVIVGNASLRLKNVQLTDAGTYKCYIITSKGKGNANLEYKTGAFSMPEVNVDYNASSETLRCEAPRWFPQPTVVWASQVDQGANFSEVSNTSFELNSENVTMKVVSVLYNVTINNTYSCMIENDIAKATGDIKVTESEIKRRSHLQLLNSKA

T4: TPP-3760, B7H3 long, human (R&D Systems 2318-B3/CF) (human, UniProt Q5ZPR3 27-461)
T4 construct: Bought protein; also called B7H3 (RnDSystems, 2318-B3-050/CF); human B7H3
T4 sequence: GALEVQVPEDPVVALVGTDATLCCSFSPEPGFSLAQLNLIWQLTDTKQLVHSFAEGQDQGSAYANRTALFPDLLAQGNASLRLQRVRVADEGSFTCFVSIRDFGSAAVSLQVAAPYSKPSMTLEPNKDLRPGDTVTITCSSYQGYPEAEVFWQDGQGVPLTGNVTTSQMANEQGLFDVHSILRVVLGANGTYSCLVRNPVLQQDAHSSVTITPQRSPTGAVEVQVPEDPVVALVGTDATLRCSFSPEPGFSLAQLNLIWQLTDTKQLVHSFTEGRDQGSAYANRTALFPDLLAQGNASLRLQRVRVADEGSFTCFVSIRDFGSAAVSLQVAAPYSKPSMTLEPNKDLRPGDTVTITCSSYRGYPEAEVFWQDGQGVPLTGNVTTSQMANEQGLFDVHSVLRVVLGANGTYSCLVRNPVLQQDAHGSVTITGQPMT


Tests used:
[1] = target: T1, human B7H3 on cancer cell lines; experiment: cell-based or functional assay
[2] = target: T1, human B7H3 on cancer cell lines; experiment: cell-based or functional assay; remark: listed apart in the source
[3] = target: T1, human B7H3 on cancer cell lines; experiment: flow cytometry on A498 cells, dose response from 10 ug/mL (1:5 dilution), FITC secondary antibody
Description: A dose response curve (1:5 dilution) was generated. Following incubation, 200 μL of ice-cold FACS buffer were pipetted in and the cell suspension was centrifuged at 4° C., 400 g for 4 min. The cell pellet was washed with 300 μL of ice-cold FACS buffer prior to resuspending the pellet obtained in 100 μL of FACS buffer and again incubating for 30 min on ice with secondary antibody (monoclonal anti-kappa light chains FITC antibody, Sigma, No. SAB4700605) in a 1:10 dilution. Subsequently, the cells were washed with ice-cold FACS buffer and adjusted to a cell concentration of 0.5×10⁶ cells/mL before carrying out the flow cytometry using a Guava flow cytometer (Millipore). Propidium iodide (final concentration 1 μg/mL) was used for the live staining. With the aid of the background-corrected geometric mean fluorescence values, the IC50 value of the antibody to be investigated was determined.

[4] = target: T2, human B7H2 (RnDSystems, 8206-B7); experiment: ELISA, IgG captured on anti-human IgG Fc, antigen 37 ng/ml, anti-His HRP detection
Description: (§1) Binding of the antibodies to human B7H3 and to human B7H2 and B7H4 was characterized using ELISAs. […] After washing once with PSB, 0.05% Tween, the plate was blocked with 100% Smart Block (Candor) for one hour at 37° C. The antibody to be tested was then attached to the plate (2 μg/ml IgG in PBS, 0.05% Tween, 10% Smart Block; 1 hour, room temperature). […] After washing three times, the plate was incubated with Amplex Red for 30 minutes and then read.

[5] = target: T3, human B7H4 (RnDSystems, 6576-B7); experiment: as above
Description: as §1

[6] = target: T4, TPP-3760, B7H3 long, human (R&D Systems …); experiment: as above
Description: as §1

Row | Binder | MCF-7 CTG (IC50 M) [1] | U251 CTG (IC50 M) [2] | EC50 [3] | Quotient signal (B7)/signal (buffer) [4] | Quotient signal (B7)/signal (buffer) [5] | Quotient signal (B7)/signal (buffer) [6]
1 | ADC Example 208-6497 (antibody, human IgG1, lambda, drug-linker from Intermediate F104 on Cys, sites not stated) heavy: EVQLLESGGGLVQPGGSLRLSCAASGFTFRSYAMSWVRQAPGKGLEWVSSVSGSGGSALYADSVKGRFTISRDNSKNTLYLQMNSLRAEDTAVYYCTRLTGTSFDYWGQGTLVTVSS[left out - human IgG1 constant region] light: QSVLTQPPSASGTPGQRVTISCSGSSSNIGSNPVNWYQQLPGTAPKLLIYGNSNRPSGVPDRFSGSKSGTSASLAISGLRSEDEADYYCQSFDSSLKKVFGGGTKLTVLGQPKAAPSVTLFPPSSEELQANKATLVCLISDFYPGAVTVAWKADSSPVKAGVETTTPSKQSNNKYAASSYLSLTPEQWKSHRSYSCQVTHEGSTVEKTVAPTECS | 0.069 nM | 0.0768 nM | – | – | – | –
2 | TPP-6497 (antibody, human IgG1, lambda) heavy: EVQLLESGGGLVQPGGSLRLSCAASGFTFRSYAMSWVRQAPGKGLEWVSSVSGSGGSALYADSVKGRFTISRDNSKNTLYLQMNSLRAEDTAVYYCTRLTGTSFDYWGQGTLVTVSS[left out - human IgG1 constant region] light: QSVLTQPPSASGTPGQRVTISCSGSSSNIGSNPVNWYQQLPGTAPKLLIYGNSNRPSGVPDRFSGSKSGTSASLAISGLRSEDEADYYCQSFDSSLKKVFGGGTKLTVLGQPKAAPSVTLFPPSSEELQANKATLVCLISDFYPGAVTVAWKADSSPVKAGVETTTPSKQSNNKYAASSYLSLTPEQWKSHRSYSCQVTHEGSTVEKTVAPTECS | – | – | 0.31 nM | < 1.5 | < 1.5 | 111
